In PubChem BioAssay AID624417 (National Center for Advancing Translational Sciences (NCATS), 2012):
In all, about 410,000 compounds went through this assay and about 6,400 (1.6%) were called active. This list was built around the results that the source calls inconclusive (neither active nor inactive); the mix of calls is not that of the screen. Calls come from the whole dose curve; as a rule, active = well fitted inhibition curve with a large enough effect; inconclusive = small, poorly fitted or top-dose-only effect; inactive = no such curve, though single readings can be large or run the other way. Where the call is inconclusive, the potency comes from a doubtful curve fit.

The compounds below were run against Glucagon-like peptide 1 receptor (Homo sapiens) (UniProt P43220) (assay: qHTS of GLP-1 Receptor Inverse Agonists (Inhibition Mode)). Conditions: HEK293 GLP-1R CRE-luciferase, luminescence, 24 h, GLP-1R form is constitutively active; series mostly up to 38.3 µM.
UniProt P43220, sequence (P43220 whole entry, looked up): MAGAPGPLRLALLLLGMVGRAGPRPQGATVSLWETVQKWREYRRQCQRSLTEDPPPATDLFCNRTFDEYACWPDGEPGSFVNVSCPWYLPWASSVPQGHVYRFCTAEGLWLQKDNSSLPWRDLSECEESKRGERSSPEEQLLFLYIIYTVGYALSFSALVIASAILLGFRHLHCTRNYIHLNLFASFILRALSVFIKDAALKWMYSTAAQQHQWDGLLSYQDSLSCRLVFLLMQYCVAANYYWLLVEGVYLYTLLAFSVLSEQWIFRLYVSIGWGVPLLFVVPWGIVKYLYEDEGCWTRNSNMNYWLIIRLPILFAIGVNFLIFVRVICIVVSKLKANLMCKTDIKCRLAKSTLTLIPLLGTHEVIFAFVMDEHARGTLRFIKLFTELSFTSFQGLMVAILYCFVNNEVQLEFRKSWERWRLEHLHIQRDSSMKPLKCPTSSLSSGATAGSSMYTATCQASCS
In short: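 Luminescence readout: a drop in cAMP-driven luciferase signal flags inverse agonism at a constitutively active GLP-1R stably expressed in HEK293. Compound exposure lasted 24 hr at 37 deg C, 5% CO2.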
Note: nearly all actives have a fitted effect of over 55% in size.
Potency is the fitted concentration of half-maximal effect; tags give direction and shape of the fitted curve.

Potency, inactive:
CC(=O)Nc1ccc(C(=O)OCC(=O)N2CCN(C(=O)c3ccco3)CC2)cc1
CCOc1ccccc1NC(=O)C(c1ccccc1)N1Cc2ccccc2C1=O (stereo not given)
CSc1cccc(NC(=O)Cn2ncn3c(cc4ccccc43)c2=O)c1
COc1ccc(-c2nc3c(c(SCC(=O)N4CCCCC4)n2)Cc2c(CO)cnc(C)c2O3)cc1
O=C1c2ccccc2NC(c2ccccc2O)N1c1ccc(F)cc1 (stereo not given)
COC(=O)C[C@H]1c2cc(C(F)(F)F)ccc2S(=O)(=O)N1Cc1ccc(OC)cc1
N#CCC(=O)N/N=C/c1cn(Cc2ccccc2C#N)c2ccccc12

Potency, inconclusive:
Fc1ccc(CCNC(=S)Nc2ccc(F)c(Cl)c2)cc1 11.2 µM [inhibitor, partial curve, poor fit]
Cc1ccc([C@H]2C(C(=O)O)=CC[C@@H](c3ccc(C)cc3)N2S(=O)(=O)c2ccc(C)cc2)cc1 28.2 µM [inhibitor, single point]
CC1(C)c2ccccc2-c2nc3ccccc3cc2C1O (stereo not given) 3.98 µM [inhibitor, partial curve, poor fit]
CN(C(=O)COC(=O)/C=C/c1ccccc1)C1CCS(=O)(=O)C1 (stereo not given) 5.62 µM [inhibitor, partial curve, poor fit]
O=[N+]([O-])c1ccc(Sc2ccncn2)c([N+](=O)[O-])c1 12.6 µM [inhibitor, partial curve, poor fit]
Cc1ccc(C)c(N2CCN(C(=O)c3cc(S(=O)(=O)N4CCCCCC4)cn3C)CC2)c1 28.2 µM [inhibitor, single point]
COc1ccc(NC(=S)Nc2nc(CC(=O)Nc3ccccc3OC)cs2)cc1 1.12 µM [inhibitor, single point]
CCOc1ccc(N(CC)S(=O)(=O)N2CCCC(C(=O)NCCc3ccc(OC)cc3)C2)cc1 (stereo not given) 10 µM [inhibitor, single point]
CCN(CC)S(=O)(=O)c1ccc2oc(C(=O)NCc3ccccc3OC)c(C)c2c1 22.4 µM [inhibitor, single point]
C=C(CN(C)C)C(=O)c1ccc(C)cc1C 28.2 µM [inhibitor, single point]
COc1ccc(CNC2CCSc3ccccc32)cc1OC (stereo not given) 10 µM [inhibitor, partial curve, poor fit]
CC(NC(=S)NC(=O)c1ccccc1Br)c1ccccc1 (stereo not given) 10 µM [inhibitor, partial curve]
CC(C)(C)C1CCC2(CC1)NC(=S)N(c1ccccc1)N2 (stereo not given) 5.62 µM [inhibitor, full curve, poor fit]
Cc1cccc(N2CCN(C(c3ccccc3)c3nnc(-c4ccccc4Cl)o3)CC2)c1C (stereo not given) 28.2 µM [inhibitor, single point]
CC(=O)N1CCC2(CC1)C/C(=N\NC(=S)Nc1ccccc1F)c1cc(O)ccc1O2 8.91 µM [inhibitor, partial curve, poor fit]
O=C1C(=O)c2ccc(-c3ccccc3)cc2-c2ccccc21 2.24 µM [inhibitor, full curve, poor fit]
CCSc1nn(CC(=O)Nc2ccc(C(=O)OC)cc2)c(N)c1S(=O)(=O)c1ccc(C)cc1 10 µM [inhibitor, partial curve, poor fit]
CC(C)(C)[C@H]1C=C(C(=O)NCc2nc3ccccc3[nH]2)O[C@@H](OCc2ccc(CO)cc2)C1 28.2 µM [inhibitor, single point]
CCNC(=O)COC(=O)c1cc(C)n(-c2ccccc2)c1C 28.2 µM [inhibitor, single point]
CCc1nnc(NC(=O)c2cc(Cl)ccn2)s1 28.2 µM [inhibitor, single point]
O=C(Nc1ccc(N2CCCCC2)cc1)C1CCCN1S(=O)(=O)c1ccc(F)cc1 (stereo not given) 11.2 µM [inhibitor, partial curve, poor fit]
O=C(NCc1ccc2c(c1)OCO2)c1ccc(CSCc2ccc(Cl)cc2)o1 28.2 µM [inhibitor, single point]
CC1Cc2ccccc2N1CC(=O)Nc1ccc2c(c1)OCCCO2 (stereo not given) 12.6 µM [inhibitor, single point]
O=C(Cc1sc(-c2ccccc2)nc1-c1ccccc1)Nc1ccc(Cl)cc1 3.55 µM [inhibitor, full curve, poor fit]
COC(=O)c1cc(Br)c(=O)n(CCC2=CCCCC2)c1 15.8 µM [inhibitor, partial curve, poor fit]
COc1ccc(C(O)Cn2c(=N)n(CCCN(C)C)c3ccccc32)cc1 (stereo not given) 3.98 µM [inhibitor, full curve]
NS(=O)(=O)c1ccc(CCNC(=O)CSc2ccc3ccccc3c2)cc1 6.31 µM [inhibitor, partial curve, poor fit]
Cc1onc(-c2ccccc2)c1C(=O)NCCSCc1ccco1 28.2 µM [inhibitor, single point]
CC12CCC(=O)N1C(C(=O)OCC(=O)Nc1ccc(Cl)c(Cl)c1)CS2 (stereo not given) 7.08 µM [inhibitor, partial curve]
CCOC(=O)Nc1ccc2c(c1)N(C(=O)CN1CCN(C)CC1)c1ccccc1S2 10 µM [inhibitor, partial curve, poor fit]
CCOc1cc(CNn2cn[nH]c2=S)cc(Cl)c1OCc1ccccc1F 28.2 µM [inhibitor, single point]

Potency, active:
COc1ccc(Nc2ncnc3c2c(C)c(C)n3CCCN(C)C)cc1 11.2 µM
CC(C)c1ccc(NC2CCCN(C(=O)CC3CCCC3)C2)cc1 (stereo not given) 6.31 µM
